# Measured values from PMC12136788.
# The list shows a part of the results.
# B1: chr17:58308540:58309380:-|CDS|ENSG00000005379|control|control|control (ssRNA)
# RNA: GGGAGUUCUACAGUCCGACGAUCCAUCAGCAUCACCAGCUCCUGCUACCCUGGAGAUGGGGAGGCCUGGGGCACAGCAACUGUAGGAAGGCCCAGGGGGCCUCCGAAGGCCAAUUCAGGCCCCAAGCCCUACCCACGCCUCCCCAACAGAGGAUUGAGCAUCA
# B2: chr15:64682558:64682659:+|3pUTR|ENSG00000180357|unk|total|mutant (ssRNA)
# RNA: GGGAGUUCUACAGUCCGACGAUCCACACUGGUCUUGCCUCUUCUUUUCCACUGCUUGGCUCUUAAGCCUCAGGCAGAUAAACCCGUAUUCCCCCCAGCUUGGGGAACCUUGGAGUCUGCCAGGUCACCUCCGGGCAAGGCCCACAACAGAGGAUUGAGCAUCA
# B3: chr2:73958838:73958951:+|3pUTR|ENSG00000114956|unk|FALSE|unique (ssRNA)
# RNA: GGGAGUUCUACAGUCCGACGAUCCCAGCCCCUCUCAUCCCUGGAGCACUCUGCCGCUCAAGAGCUGGUUUGUUAAUUAUUGUUAGACUUUGCCAUUGUUUUCUUUUGUACCUGAAGCAUUUUGAAAAUAAAGUUUACUUAAGUCAACAGAGGAUUGAGCAUCA
# B4: chr2:190062223:190062596:-|CDS|ENSG00000138379|control|control|control (ssRNA)
# RNA: GGGAGUUCUACAGUCCGACGAUCGGAAAAAGAGGGGCUGUGUAAUGCAUGUACUUGGAGACAAAACACUAAAUCUUCAAGAAUAGAAGCCAUUAAGAUACAAAUCCUCAGUAAACUUCGUCUGGAAACAGCUCCUAACAUCAGCAACAGAGGAUUGAGCAUCA
# B5: ENSG00000107863:be:win_551|CDS|ENSG00000107863|bound_else_gene|NA|bound_elsewhere_windowed (ssRNA)
# RNA: GGGAGUUCUACAGUCCGACGAUCAAGGCAACGAAGCUUAUAGCGGCAAUGCCCGCAAUAUACCUGAACCUCCACCAAUCUGCUAUCCCUGGCUGCCAUCUGCCCCAUCAGCCAUGGCACAGCCAGUUGAAAUAUCUCCUCCUGCAACAGAGGAUUGAGCAUCA
# B6: chr3:98585547:98585662:-|CDS|ENSG00000080819|unk|total|mutant (ssRNA)
# RNA: GGGAGUUCUACAGUCCGACGAUCUCCAUUUGAUCCCUGGUUUGGCGCCGCUGUGUUUUCCAGGUGUGAUGAUUACUUCUUUACCGCCCAUCGUGGAGAACGGCGGGGCAUUGGUGGUAUCUUUUUUGAUGAUCUUGACUCUCCCAACAGAGGAUUGAGCAUCA
# B7: chr9:124811826:124811928:+|3pUTR|ENSG00000185585|msi1|total|mutant (ssRNA)
# RNA: GGGAGUUCUACAGUCCGACGAUCAAGAAAUUUUCCCGCCCAACUCCCUGUUUCAUGAAAGAGAAAAGAGGCUCAGAAAAGUUCCGAGAGCAGCUCAGUGUCACACUGGGAGCUGGGCACAGCCGAUCUCCUUCCAGAAGGGUUCAACAGAGGAUUGAGCAUCA
# B8: chr17:48762233:48762973:-|three_prime_utr|ENSG00000170703|control|control|control (ssRNA)
# RNA: GGGAGUUCUACAGUCCGACGAUCGUCUCUUCCGACAGUGUCUCCAGUGUUCACAGAAUCAACUGAAGUUUUGUUUGCUCAUCUAGAUAUACUGGUCUUCCAUUAGUUCCUAGUAGCAGCAAUGGGGCCAACAGCCCUGCCUCUCAACAGAGGAUUGAGCAUCA
# B9: chr22:45843749:45843850:+|3pUTR|ENSG00000130638|msi1|FALSE|unique (ssRNA)
# RNA: GGGAGUUCUACAGUCCGACGAUCAAAUUGCAAGUGUUUGAAGAUUUAUAAGUACAAAUUUGGGAACAUACAAAUCUUUUAGGUAGUAGAGUUUAACGUGUAUAAGCUAAAAGUGAAAGUAACUGAGUGUUCUCUUGUUUCUUUCAACAGAGGAUUGAGCAUCA
# B10: chr11:119418629:119418730:-|3pUTR|ENSG00000154096|msi1|total|mutant (ssRNA)
# RNA: GGGAGUUCUACAGUCCGACGAUCCCUCAGAGGCCUUGGGGCAUGACCCAGUGAAGAUGCAGGUUUGACCAGGAAAGCAGCGCCCGUGGAGGGUUGGAGAAGGAGGUAAAGGAUGAGGGUUCAUCAUCCCUCCCUGCCUAAGGACAACAGAGGAUUGAGCAUCA
# B11: chr17:39471515:39471616:+|CDS|ENSG00000167258|unk|FALSE|unique (ssRNA)
# RNA: GGGAGUUCUACAGUCCGACGAUCUUGCCUCCAAUACCAGCUCUUCCACAGCAACCACCUCUGCCUCCUUCUCAGCCAGCAUUUAGUCAGGUUCCUGCUUCCAGUACUUCAACUUUGCCCCCUUCUACUCACUCAAAGACAUCUCAACAGAGGAUUGAGCAUCA
# B12: chr2:206003504:206003605:-|3pUTR|ENSG00000114933|msi1|total|mutant (ssRNA)
# RNA: GGGAGUUCUACAGUCCGACGAUCGGUCGUGUGAGCCGCACAACCUUUUUCUGCUAAAAGUCCGCCCAAGAAGAAACAGAACACCGAAAGCUUGGAUUCCCGUCAGUGAGGCCGGGAUGUCCUAAAAAGCUUGCCUGGGAUGACCAACAGAGGAUUGAGCAUCA
# B13: chr1:165890246:165890361:+|CDS|ENSG00000143179|unk|total|mutant (ssRNA)
# RNA: GGGAGUUCUACAGUCCGACGAUCCUCCUGGGGCAGAAUGAGGUGGACUAUCGCCAGAAGCAGGUGGUCAUCCUGAGCCAGGACCGCUUCUACCGUGUCCUUACCUCGGAGCAGAAGGCCAAAGCCCUGAAGGGCCAGUUCAACCAACAGAGGAUUGAGCAUCA
# B14: chr2:30158716:30158817:+|CDS|ENSG00000119801|msi1|total|mutant (ssRNA)
# RNA: GGGAGUUCUACAGUCCGACGAUCGUUUGCCACUGAAGACAGCCAGCGAUAUAAGGAAGGCCGCGUGAUCCUGGAACGUGCUCCCGUUCGAGAGAGUGAGGGCUUUGAGGAGCAUGUACCAUCUGAUAACUCUUGAAGAUACAGCAACAGAGGAUUGAGCAUCA
# Target: T1, UNK ZnF1-6 (called full-length) (human, UniProt Q9C0B0 30-357)
# T1 sequence: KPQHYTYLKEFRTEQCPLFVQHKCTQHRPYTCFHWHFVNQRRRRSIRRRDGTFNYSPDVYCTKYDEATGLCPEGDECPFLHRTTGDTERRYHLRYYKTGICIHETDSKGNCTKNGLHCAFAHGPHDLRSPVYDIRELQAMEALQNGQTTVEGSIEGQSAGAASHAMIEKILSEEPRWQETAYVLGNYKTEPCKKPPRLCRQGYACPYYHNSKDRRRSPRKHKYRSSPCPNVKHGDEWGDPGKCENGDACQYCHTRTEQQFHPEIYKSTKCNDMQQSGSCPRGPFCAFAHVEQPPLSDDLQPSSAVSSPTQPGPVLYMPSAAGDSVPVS
# Assay: nsRBNS (natural sequence RNA bind-n-seq); RBNS binding buffer (assumed for nsRBNS): 25 mM Tris pH 7.5, 150 mM KCl, 3 mM MgCl2, 0.01% Triton X-100, 500 ug/ml BSA, 20 U/ml SUPERase-In, 4 C; UNK is unkempt and MSI1 is Musashi-1; names of the RNAs are library labels; protein concentration not given here; high values mean tight binding
row,Binder,binding signal [enrichment R]
1,B1,0.509
2,B2,0.509
3,B3,0.799
4,B4,0.418
5,B5,0.653
6,B6,0.501
7,B7,0.595
8,B8,0.955
9,B9,0.639
10,B10,0.833
11,B11,1.13
12,B12,0.479
13,B13,0.709
14,B14,0.708
